Reference: the supplement of paper PMC11417369
The other results are listed elsewhere or left out.

Tested on: PfSIP2 AP2 domain 1 (GST-tagged)
Test: gcPBM binding intensity (ln(normalized median fluorescence intensity)); higher = stronger DNA binding
How it was run: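 Probes on an Agilent 4 × 180k array were primer-extended, double-stranded and 36 bp long, taken from intergenic genomic regions, with negative controls added. GST-tagged P. falciparum DNA-binding domains from E. coli, about 25 μg on average, were applied to the array for 1 h in 1× PBS containing 1% milk, 0.2 mg/ml BSA, 0.5% salmon testes DNA and 0.03% Triton X-100. Binding intensity, obtained after Alexa488 anti-GST antibody detection and a 488 nm scan, is the highest Masliner-normalised natural-log median intensity across replicate spots of either probe orientation.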

Sequence	gcPBM binding intensity (ln)
TATATATATATGTGTACACAAAAAATATTATATTAT [CACACA_site5505]	9.36
ATTCTATTTTTAAGTACACACATATATATATATATA [CACACA_site3658]	9.29
ACATAATTATTATGCACACATATTTTTATGTATTTA [CACACA_site698]	7.72
TAATGGTGTTCATGTGGTACACTTTATAAATTGGCA [XGTACX_site729]	7.31
TTGAAAATTCTTAAGGCACACACATATATAATATAT [CACACA_site8088]	7.12
GCTTATTTTAATTCTTGTACTTATTTATATACAAAT [XGTACX_site2099]	7.61
AAACTAACTCTAACATGTACATATATATATATATAT [XGTACX_site6949]	9.35
TTTTGAAGTAATACATGTACTTAAATTACTAAAAAA [XGTACX_site1955]	6.92
ACTTTGCGTTAAAAGAGTACATAATATTTTTTTTTT [XGTACX_site7533]	7.33
AAAAAAAACAGACACACACACATAAATATAAATAAA [CACACA_site6214]	6.97
TTTTTAAAAAGTAACACACACTCTTATATATAATGA [CACACA_site3618]	6.96
TATACATATATATATATATATAGATATATTCACGTG [XGTACX_negctrl_site265]	7.88
AAAATAATAATAAATGCATGTGTTGTTTACTAAGAA [TGCATGCA_site528]	7.54
TTTTTATATTTATATAAATAAAAAAATAACAAAATG [XGTACX_negctrl_site231]	7.23
TACCTATACAGACACACACACACACGCCCACAAAAA [CACACA_site6375]	7.35
TGAACATACATCAAAAGTACAAACTCGCATGTTATA [XGTACX_site3320]	6.78
CTCCATATTAGACACACACACAAATGAAAAAAATAT [CACACA_site7420]	7.51
TAAAATTAAACAAAAAAAAAGAAAAAAAAAAAAAAG [CACACA_negctrl_site1098]	6.88
TTTTGGTATACGTAATTATATAATATGTTAATCAAT [CACACA_negctrl_site645]	7.05
AATGTAGACACATATGTACACACATATATATGTATA [CACACA_site9014]	7.2
AATATTCTATATGATACATGCATGATGGAATAAAAA [TGCATGCA_site980]	6.98
CCGCCATTGTACCATCCACACACATATATATATGTA [CACACA_site8866]	7.56
ATTATATATATATTATGTACATATATTGAAGTGGAT [XGTACX_site5916]	7.56

Sequence	gcPBM binding intensity (ln)
ACGGATTAAAAAATGTGTACGCACAAAAAAAAAAAT [XGTACX_site8259]	7.17
TACGAAATCATATGTACACACACATATATATATATA [CACACA_site5216]	9.34
ATATATATATATATATGTACTTAATGTTATTATATA [XGTACX_site4508]	9.13
TGTTCAGTATTGCACACACACAACAAAATAAAAAAA [CACACA_site6314]	7.42
GAAATGTGATAATATACACACACGCATATATATATA [CACACA_site4332]	9.04
AAATAGTTGTTAAAGGTGCACAATATGGATATAAGA	11.2
TGAAAATATATAACGCGTACAAAAAGGAAATACAAT [XGTACX_site3534]	7.36
TTTTTTTTTTTTTTTGCATGTTGAAAATAAAATTAT [TGCATGCA_site86]	6.92
ATTTATTTTAAATAAGTGCAAAATGGTTATAAATAA	8.23
AAAATTTCAATAAATACACACATATAAATATAGATT [CACACA_site6893]	6.75
ATAAATATTTTGTAAGCATGCTTTTAAAAAAAGAAA [TGCATGCA_site572]	6.79
ATGTACTATAGGCACACACACTCACATATATATATA [CACACA_site5745]	9.64
GGAAAAAAATAAAATAAGTATTTTACATACATATTG [TGCATGCA_negctrl_site10]	6.63
ATATATTTTTATATAGTGCAAGTAATAAAAAGGAAT	8.91
ATAACATTCAAAAAATGTACAAACATATGAATAAAT [XGTACX_site7013]	6.93
ATATCATTTTATTTGTGTACTTAAAAAGTTGCAATG [XGTACX_site4099]	7.51
AAAACTTTTTTAACAGAAAAATAGGGATACAATATA [CACACA_negctrl_site1708]	7.16
GGAATAACCAGACACACACACACATATAAATATGTA [CACACA_site7632]	7.05
TAAATACAAGAACTGACACACATACATACTACATTT [CACACA_site5561]	6.95
GAACAAAAAAAAAATTGTACACAATTTTTTAAAATT [XGTACX_site4455]	6.73
ATGATTTATTATTATACACACAAAAAAAAAAAAGGA [CACACA_site264]	7.21
AATACATACATATATACATGCATACATATAAATATA [TGCATGCA_site674]	7.4
GCTTATAAGATATGCACACACAACACTTACAAAAAA [CACACA_site817]	7.66

Sequence	gcPBM binding intensity (ln)
AAACAAAAAAAATAAGCACACATATATATATATATA [CACACA_site8173]	9.64
AAAATTATATGTAATTGTACGGAATTATATACGCAA [XGTACX_site2048]	7.1
TCCTGTGGTTATATAACACACATTATTGCTTATAAG [CACACA_site6823]	6.92
TTTTTTAAAAATATTATCATCGTAACAAGAAATCGA [CACACA_negctrl_site1111]	7.13
ATATTGCTTATTTGATGTACGAATACACTAGTATTA [XGTACX_site4536]	7.37
ATACTAAATGAACACACACACATATAGATTTATAAC [CACACA_site6200]	7.07
TATCTGTATATGTGTACACATATTCTTAACTCACGC [CACACA_site4255]	7.06
ATTTTATGAAATGTTGCACACAAAAAACAACATGTT [CACACA_site8408]	7.66
GAACAACAACAAAAAAAAAAAAAAAAAAAAAAAAAA [CACACA_negctrl_site199]	7.04
TAAATAAATATATGTACACACACAAATATATACATA [CACACA_site8577]	7.12
TATATGATATAATATACACACATACATATATATATA [CACACA_site8066]	8.99
CTGAATTTTTATAACTGTACATATTTGATATAAAAA [XGTACX_site183]	7.27
ATGGGAAAAACATTCCGTACATACATACACATATAT [XGTACX_site8263]	7.15
ATATTTAATACAAATACACACACAAATATATACATA [CACACA_site9248]	7.11
GAAATCTAATTTATTACACACATTTGAAAAAAATTC [CACACA_site6640]	6.69
TTATATTTTTTTGAGTGTACTTTTTGTGTAAAATTC [XGTACX_site2155]	7.1
ACCCATTTTTGTTGTTCTATATATTCGTGAATCATT [CACACA_negctrl_site614]	7.46
AATTTTTTGAATAATTGTACATATTTGGTTAAATAT [XGTACX_site3612]	6.97
TTACTAAGAAGGATTTATTTTATAAAAATATTTATT [XGTACX_negctrl_site549]	6.53
ATATTTTATACTTGCACACAAAATATATTAGAATGT [CACACA_site1985]	7.27
TTTTTTTTTTTTTTTGCACACTTAAATTTGGTGGGG [CACACA_site2344]	7.67
CACGCGCACGAACACACACACACACGCATATAAATA [CACACA_site7103]	7.29
ATATTATTTTATTTTTGTACAGATATCTTTAAAAAA [XGTACX_site3734]	7.22

Sequence	gcPBM binding intensity (ln)
TACAGATAAATATACATACATATATATATATATATA [XGTACX_negctrl_site182]	9.01
TTATTAAAAATGGTATGTACGCACATAATATATATA [XGTACX_site3230]	7.73
AACATCATCTCTCCACAACAACAAAAAAAAAAATAC [CACACA_negctrl_site311]	7.27
AATACATACATACATACATGCATATATATATATATA [TGCATGCA_site462]	9.8
TGTTTATGTTTACATGTGCGCATTACAGAAAAAAAA [GTGCAC_site9669]	8.92
TATTTTTATTGGTGAATACACACGTATATATATATT [CACACA_site2401]	7.07
TTTTTATTTAAAAGTAGTACAAGGGTTATTATTAAC [XGTACX_site1555]	7.42
ACATGTATACTTTTTACGAAAAAAAAAAAAAAAAAA [CACACA_negctrl_site1638]	6.89
ATTTCGTAATTTATATCACACACATATATATATAAT [CACACA_site9021]	7.23
ATCATTTTTATAAATTGTACAAATATTTTTTATACA [XGTACX_site7551]	6.95
CATATTATTTATATTTGTACACAGCGATATGAAATA [XGTACX_site7717]	7.1
CTTACATAAAATATCACACACATAAAAAAACAATAT [CACACA_site1901]	7.26
TATATATATATATATGTGCACATATATATGATATTA	9.27
TTATATAAATATAAGGTGCTGGGGTTTATTACATAT [GTGCAC_site9909]	7.21
CACCAATTCATATGCACACACATCTGCATATTATAG [CACACA_site6925]	7.56
ATATCGCACGTTTGAAGTACATAAAAACGATTAATA [XGTACX_site7684]	7.47
TATAAAATATAAATTTGTACATATAAAATATTTTAT [XGTACX_site7462]	7.15
TTTTTTAAAATATAAAATATGTACAAATATGTTGAA [GTGCAC_negctrl_site379]	7.36
TAATAGTTATAAAATACACACCAGGCATGATAAATG [CACACA_site4335]	6.71
AATATTTTAAAAAAATGTACTTTTAACCCTTATTGG [XGTACX_site3490]	6.8
